From PubChem BioAssay AID624296 (National Center for Advancing Translational Sciences (NCATS), 2012)
The campaign covered roughly 350,000 compounds. About 9,900 (2.8%) were called active. The shares of active, inactive and inconclusive entries below differ from those in the screen. Calls come from the whole dose curve; as a rule, active = well fitted activation curve with a large enough effect; inconclusive = small, poorly fitted or top-dose-only effect; inactive = no such curve, though single readings can be large or run the other way. Potencies of inconclusive entries are left out as doubtful fits.
Potency is the fitted concentration of half-maximal effect; tags give direction and shape of the fitted curve.

Assay: A quantitative high throughput screen for small molecules that induce DNA re-replication in MCF 10a normal breast cells. For activity, positive = re-replication: % of control where 0% means no effect. Note: nearly all actives have a fitted effect of over 50% in size.
Conditions: MCF 10A DNA re-replication, Hoechst nuclear intensity, 48 h; activity, positive = re-replication: at 46.1 µM (top of the series)
For CC(C)(O)c1cc2ccc(C#Cc3ccsc3)cc2c(=O)o1, the Potency was inconclusive [activator, single point].
In the case of CC(NC(=O)c1ccco1)c1ccc2c(c1)OCCO2 (stereo unspecified), the “activity, positive = re-replication” value is reported as inactive: -4.14%.
In the case of CC1CCC(NC(=O)CCNC(=O)c2ccccc2)CC1 (stereo unspecified), the Potency is reported as inconclusive [activator, single point].
With CC(=C/c1ccccc1)/C=N/NC(=O)c1nnn(-c2nonc2N)c1CN1CCC(C)CC1 the “activity, positive = re-replication” value was inactive: 6.09%.
For CC(=O)c1ccc(S(=O)(=O)N2CCC(c3nnc(SCCN4CCCC4)n3C)CC2)cc1, the Potency was inconclusive [activator, partial curve, poor fit].
For CC12CCC3c4cc(CN5CCOCC5)c(O)cc4CCC3C1CCC2=O (stereo unspecified), the Potency was inconclusive [activator, partial curve, poor fit].
For CCCOc1ccccc1N/C(=N\S(=O)(=O)c1ccc(C)cc1)Nc1nc(C)cc(C)n1, the “activity, positive = re-replication” value was inactive: -2.79%.
With Nc1nc(SCC(=O)N2CCOCC2)[nH]c(=O)c1-c1ccccc1 the “activity, positive = re-replication” value was inactive: 12%.
For COc1cc2c(C(=O)N3CCN(C)CC3)c(C)oc2cc1Br, the Potency was inconclusive [activator, partial curve, poor fit].
For c1csc(-c2nn3c(C4CCCCC4)nnc3s2)c1, the “activity, positive = re-replication” value was inactive: -2.77%.
For COc1ccc(C)cc1Nc1n[n+](-c2ccccc2)c(-c2cccc(Cl)c2Cl)s1, the Potency was inconclusive [activator, single point].
For O=C(CC1CC2CCC1C2)NCCc1ccc(Cl)cc1 (stereo unspecified), the “activity, positive = re-replication” value was inactive: -2.42%.
With COc1cc2cc(-c3ccc(O)cc3O)nc(C)c2cc1OC the Potency was inconclusive [activator, partial curve, poor fit].
For CCN1CCC(NCCc2ccc(F)cc2)CC1, the Potency was active: 18.4 µM.
With Cc1ccc(S(=O)(=O)N2[C@@H](c3ccc(C(C)(C)C)cc3)C(C(=O)O)=CC[C@H]2c2ccc(Cl)cc2)cc1 the Potency was inconclusive [activator, single point].
For NNC(=S)Nc1c(F)cc(F)cc1Br, the Potency was inconclusive [activator, single point].
With C/C(=N\Nc1ccccn1)c1ccc(Br)s1 the Potency was inconclusive [activator, single point].
For Brc1ccc(C2=CC(c3ccco3)n3ncnc3N2)cc1 (stereo unspecified), the Potency was inconclusive [activator, partial curve, poor fit].
In the case of CS(=O)(=O)c1nc2c(cc1C#N)CCCC2, the Potency is reported as inconclusive [activator, partial curve, poor fit].
For Cc1noc(C)c1S(=O)(=O)Nc1ccc(C(=O)Nc2ccc(OC(F)(F)F)cc2)cc1, the Potency was inconclusive [activator, partial curve, poor fit].
In the case of COc1cccc(CCN2CCC(CNS(=O)(=O)c3cc(-c4cc(C)no4)ccc3C)CC2)c1, the “activity, positive = re-replication” value is reported as inactive: 15.8%.
With Cc1onc(-c2ccccc2)c1C(=O)/C=C/N(C)C the Potency was inconclusive [activator, single point].
For O=C(Cn1nnc(-c2ccccc2)n1)N/N=C/c1cc([N+](=O)[O-])c(Cl)cc1Cl, the Potency was inconclusive [activator, full curve, poor fit].
In the case of O=C(c1csc2c1CCCC2)N1CCN(c2ncccn2)CC1, the “activity, positive = re-replication” value is reported as inactive: -1.55%.
For O=C(c1ccccc1)c1coc2c1C(=O)c1ccccc1C2=O, the Potency was inconclusive [activator, full curve, poor fit].
For O=C(CN1C(=O)C2CC=CCC2C1=O)OCC(=O)c1ccc(Cl)c([N+](=O)[O-])c1 (stereo unspecified), the Potency was active: 23.1 µM.
With CC(=O)Nc1ccc(Nc2nc(-c3ccccc3)nc3ccccc23)cc1 the Potency was inconclusive [activator, single point].
For O=C(NC(=S)Nc1ccccc1N1CCCCC1)c1ccc(F)cc1, the Potency was inconclusive [activator, partial curve].
With CCOc1ccc(N2CC(C(=O)Nc3ccncc3)CC2=O)cc1 (stereo unspecified) the “activity, positive = re-replication” value was inactive: 0.296%.
With CCOc1cc(C2C(C(=O)OC)=CN(Cc3ccc(Cl)cc3)C=C2C(=O)OC)ccc1O the Potency was inconclusive [activator, single point].
In the case of O=C(c1cc2c(s1)-c1ccccc1OC2)N1CCN(c2ccccn2)CC1, the Potency is reported as inconclusive [activator, partial curve, poor fit].
With COCC1CCCCN1C(=O)C1CCN(c2nc(-c3ccccc3)nc3c2CCC3)CC1 (stereo unspecified) the “activity, positive = re-replication” value was inactive: 16.5%.
With CCN(CC(=O)NCc1cccs1)C(=O)c1ccc(S(=O)(=O)Nc2ccccc2)cc1 the “activity, positive = re-replication” value was inactive: -3%.
In the case of COCCn1c(SCC(=O)/C=C2\N(C)c3ccccc3C2(C)C)nnc1-c1ccncc1, the Potency is reported as inconclusive [activator, partial curve, poor fit].
With CN1C(=O)CC(Sc2ccccc2C(=O)O)C1=O (stereo unspecified) the Potency was inconclusive [activator, single point].
For COc1ccc(C(=O)NC2CC(C)(C)Cc3c2cnn3-c2ccccc2C)o1 (stereo unspecified), the Potency was inconclusive [activator, partial curve, poor fit].
With O=C(NCc1cccs1)Nc1cccc(Cl)c1 the “activity, positive = re-replication” value was inactive: -2.17%.
In the case of COc1cccc(C(=O)C2CCCN(CC3=Cc4cc(OC)ccc4OC3)C2)c1 (stereo unspecified), the “activity, positive = re-replication” value is reported as inactive: 29.7%.
For O=C(/C=C(O)/C=C/c1ccc(O)cc1)/C=C/c1ccc(O)cc1, the Potency was inconclusive [activator, single point].
In the case of COc1cc2c(cc1OC)CN(C(=O)c1cc(=O)c3ccccc3o1)CC2, the Potency is reported as active: 10.3 µM.
For O=C(c1ccc(-c2ccccc2)cc1)N1CCN(c2ccccc2F)CC1, the Potency was inconclusive [activator, full curve, poor fit].
With Cc1cccc(Cn2c(=O)n(Cc3ccco3)c(=O)c3ccccc32)c1 the Potency was inconclusive [activator, single point].
In the case of CCCn1c(C)cc(C(=O)CSc2nc3ccccc3c(=O)n2Cc2ccco2)c1C, the Potency is reported as inconclusive [activator, full curve, poor fit].
For COC(=O)N/N=C/c1cn(CCOc2ccccc2OC)c2ccccc12, the Potency was inconclusive [activator, single point].
With CCOc1ccc(NC(=O)CN(C)C(=O)CCN2C(=O)C3CC=CCC3C2=O)cc1OCC (stereo unspecified) the “activity, positive = re-replication” value was inactive: 7.26%.
For CCOC(=O)c1sc(Nc2ccc(C)cc2C)nc1C, the Potency was inconclusive [activator, partial curve, poor fit].
For CCCC(Oc1ccc(Br)cc1)c1nc2c3cc(OC)c(OC)cc3nc(=S)n2[nH]1 (stereo unspecified), the Potency was inconclusive [activator, single point].
In the case of Cc1ccc(OCC(=O)c2cc(C)n(-c3cc(C)on3)c2C)c([N+](=O)[O-])n1, the Potency is reported as inconclusive [activator, single point].
For CCC(NC(=O)c1ccc2nc(Cc3ccc(OC)cc3)oc2c1)c1ccncc1 (stereo unspecified), the Potency was inconclusive [activator, single point].
For O=C(COc1ccccc1[N+](=O)[O-])Nc1ccccc1N1CCCCC1, the Potency was inconclusive [activator, single point].
For COc1ccc2cc(CCNC(=O)C(C)(C)C)c(=O)[nH]c2c1, the “activity, positive = re-replication” value was inactive: 0.398%.
For COc1ccc(C(C)(C)C)cc1NC(=O)COc1ccc(-c2nnco2)cc1, the Potency was inconclusive [activator, single point].
With CC[C@H](C)/C=C(C)/C=C/C1=CC2=CC(=O)[C@]3(C)OC(=O)[C@@H](C(C)=O)[C@@H]3C2=CO1 the Potency was inconclusive [activator, single point].
With CCn1c(SCC(=O)Nc2ccccc2)nnc1C1CCCCC1 the Potency was inconclusive [activator, single point].
With O=C(CC1C(=O)N(c2ccccc2)C(=S)N1c1ccccc1)c1ccccc1 (stereo unspecified) the Potency was inconclusive [activator, full curve, poor fit].
In the case of Cc1onc(-c2cccc(Cl)c2Cl)c1C(=O)O/N=C(\N)c1ccc([N+](=O)[O-])o1, the Potency is reported as inconclusive [activator, full curve, poor fit].
For COC(=O)C(C(C)=O)C1=C/C(=N\S(=O)(=O)c2ccc(C)cc2)c2ccccc2C1=O (stereo unspecified), the Potency was inconclusive [activator, single point].
With CCOC(=O)Nc1ccc2c3c(cccc13)-c1ccccc1-2 the Potency was inconclusive [activator, single point].
With CC(Oc1cccc(Cl)c1)C(=O)Nc1ccc(S(=O)(=O)N(C)C2CCN(C)CC2)cc1 (stereo unspecified) the Potency was inconclusive [activator, partial curve].
With COC(=O)c1ccc(C(=O)OC)c(NC(=O)N2c3ccccc3Sc3ccccc32)c1 the “activity, positive = re-replication” value was inactive: -2.45%.
In the case of Cc1cccc(C)c1NC(=O)CCCSc1nc2ccccc2s1, the Potency is reported as inconclusive [activator, single point].
With CCS(=O)(=O)N1Cc2ccccc2CC1C(=O)Nc1nc2ccccc2[nH]1 (stereo unspecified) the “activity, positive = re-replication” value was inactive: 3.48%.
For COc1ccccc1-c1cc(C(F)(F)F)nc(S(=O)(=O)CCCC(=O)Nc2cccnc2Cl)n1, the Potency was inconclusive [activator, single point].
For CCOC(=O)c1ccc(N(C(=O)CNC(=O)c2ccco2)C(C(=O)NCC2CCCO2)c2ccc(OC)c(OC)c2)cc1 (stereo unspecified), the Potency was inconclusive [activator, single point].
In the case of COc1ccc(/C=C/c2nc(N)nc(-c3ccccc3O)n2)cc1OC, the Potency is reported as inconclusive [activator, single point].
For O=c1c(Cl)c(N2CCCCC2)cnn1-c1nc2ccccc2[nH]1, the Potency was inconclusive [activator, partial curve, poor fit].
